From PubChem BioAssay AID1159614 (National Center for Advancing Translational Sciences (NCATS), 2016) come the findings set out here.

Screen size: about 45,000 compounds; about 65 (0.1%) were called active. The call rests on the fitted dose curve; in most records, active means well fitted activation curve with a large enough effect; inconclusive means small, poorly fitted or top-dose-only effect; inactive means no such curve, though single readings can be large or run the other way. Some of the results follow.

For this test, the target named is Galactocerebrosidase (Homo sapiens) (UniProt P54803). In words: A Novel Cell-Based Assay to Identify Small Molecules for B -Galactocerebrosidase. Further: 0% is about no effect; nearly all actives have a fitted effect of over 65% in size. The settings on record: 145M-Twi-hGALC-G270D cells (Twitcher mouse brain line with human GALC G270D), HMU-beta-Gal fluorescence, 48 h; series mostly up to 57.5 µM; activation: at the top concentration. In short, it runs like this: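 Brain-derived Twitcher mouse 145M-Twi cells stably expressing human GALC-G270D or wild-type GALC, treated live, then residual GALC activity read by fluorescence of HMU-b-Gal substrate (0.1 mM final) in citrate-phosphate buffer pH 5.2 with sodium taurocholate. Signal increase indicates enhancement.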
Sequence of UniProt P54803 (P54803 whole entry, looked up): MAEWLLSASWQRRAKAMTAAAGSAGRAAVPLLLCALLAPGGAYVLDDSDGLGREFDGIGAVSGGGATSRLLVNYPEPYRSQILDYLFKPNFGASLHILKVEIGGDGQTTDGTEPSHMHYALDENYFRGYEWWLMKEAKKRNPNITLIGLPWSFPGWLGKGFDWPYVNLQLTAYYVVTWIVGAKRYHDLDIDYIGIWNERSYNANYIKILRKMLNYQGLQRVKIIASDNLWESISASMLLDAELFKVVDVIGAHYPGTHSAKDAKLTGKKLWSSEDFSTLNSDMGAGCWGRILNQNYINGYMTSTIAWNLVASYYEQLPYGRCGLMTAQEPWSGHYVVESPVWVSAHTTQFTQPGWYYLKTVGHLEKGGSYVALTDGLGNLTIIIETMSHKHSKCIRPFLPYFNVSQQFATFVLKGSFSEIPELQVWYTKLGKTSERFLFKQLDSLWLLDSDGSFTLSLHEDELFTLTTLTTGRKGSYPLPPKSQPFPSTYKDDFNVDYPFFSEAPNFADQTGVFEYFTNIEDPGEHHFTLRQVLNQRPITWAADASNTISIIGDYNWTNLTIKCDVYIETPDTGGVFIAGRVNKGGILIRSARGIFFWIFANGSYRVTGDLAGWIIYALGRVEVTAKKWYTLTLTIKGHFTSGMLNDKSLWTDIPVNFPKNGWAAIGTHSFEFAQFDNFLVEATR
Take `C=CCc1cccc2cc(C(=O)NCCc3c(C)[nH]c4c(C)cccc34)c(=O)oc12`: the “activation” value is inactive: -9.37%.
Then `O=C(NCC(c1ccc2c(c1)OCO2)N1CCOCC1)C(=O)Nc1ccccc1` (stereo not given), with inactive: -10.1%; and `CCN(CC)c1ccc(NC(=O)CCc2nc3cccnc3n2Cc2cccs2)c(C)c1`, with inactive: 4.29%; and `O=C(O)Cc1sc(-c2ccccc2)nc1-c1ccc(Cl)cc1`, with inactive: -3.96%.
Regarding `Cc1cc2c(cc1C)NC(CC(=O)Nc1cccc(Cl)c1)C(=O)N2` (stereo not given), the “activation” value was inactive: -15.4%.
Then `NS(=O)(=O)c1ccc(CCNC(=O)Cn2c(-c3cccs3)cc3ccccc32)cc1`, with inactive: -4.56%.
With `Cc1ccccc1NC(=O)c1ccc2c(O)c(S(=O)(=O)c3ccccc3)c(=O)[nH]c2c1`, the “activation” value is inactive: -23.3%.
Consider `CCOC(=O)N1CCC(NC(=O)c2cnn(-c3ccc(F)cc3F)c2C2CCN(C(=O)OC(C)(C)C)CC2)CC1`, for which the “activation” value is inactive: -2.18%.
The figure for `CNc1ccc(-c2nc(-c3ccco3)no2)cc1[N+](=O)[O-]` is inactive: -3.36%; for `CN(Cc1ccc(F)cc1)S(=O)(=O)c1nnc(NC(=O)c2ccccc2Cl)s1` it is inactive: -4.98%.
Regarding `Cn1nnnc1SCCCNCc1ccc(-c2ccc(F)c(Cl)c2)o1`, the “activation” value was inactive: -12%.
Then `CCc1nc(-c2cc(S(=O)(=O)N3CCN(c4ccccc4F)CC3)ccc2OC)no1`, with inactive: -20.8%.
The figure for `CCCN1C(C(=O)c2ccccc2)=C(OC(=O)c2ccc(OC)cc2)c2ccccc2S1(=O)=O` is inactive: -9.65%.
As for `O=C(Cn1c(=O)c(C(F)(F)F)nc2ccccc21)Nc1cccc(Br)c1`, the “activation” value is inactive: -6.83%.
In the case of `COc1ccc(CCNC(=O)c2c(C)oc3ncnc(N4CCOCC4)c23)c(OC)c1`, the “activation” value is inactive: 3%.
The figure for `Cc1cc(C)cc(Nc2cc(C(=O)NC3CCC(C)CC3)c3ccccc3n2)c1` (stereo not given) is inactive: 19.4%; for `Cc1ccc(S(=O)(=O)Nc2cc3c(cc2C)n(C)c(=O)c(=O)n3C)c(C)c1` it is inactive: -16.4%.
Then `Cc1cc(C)cc(NS(=O)(=O)c2ccc(N3CCCCS3(=O)=O)cc2)c1`, with inactive: -16.3%; and `O=C(NCCc1ccccc1)c1ccc(CS(=O)(=O)Cc2ccccc2Cl)o1`, with inactive: -0.576%; and `Cc1ccc(CNC(=O)C2CCCN(S(=O)(=O)c3cn(C)cn3)C2)cc1` (stereo not given), with inactive: -9.63%.
Turning to `CCc1ccc(NC(=O)CN2C(=O)CCSc3ccccc32)cc1`, the “activation” value is inactive: -5.88%.
The figure for `Cc1cc(=O)n(CC(=O)NCc2ccc(OC(C)C)cc2)c2c1c(C)nn2-c1cccc(F)c1` is inactive: -10.5%.
Turning to `CC(C)c1cnc2c(c1SCC(=O)N1CCCCC1)c(=O)n(C)c(=O)n2C`, the “activation” value was inactive: -1.31%.
Then `COc1ccc(Nc2c(-c3ccc(N4CCOCC4)cc3)nc3ncccn23)cc1OC`, with inactive: -10.8%.
As for `CCOc1cc(CN2CCN(S(=O)(=O)c3ccc(C)cc3)CC2)ccc1OC`, the “activation” value is inactive: -21.2%.
Then `COc1ccc(/C=C/C(=O)Nc2sc(C)c(C)c2C(=O)O)cc1`, with inactive: -4.64%.
Then `Cc1ccc(NC(=O)C(C)Sc2nc(-c3ccccc3)c(C#N)c(=O)[nH]2)c(C)c1` (stereo not given), with inactive: -17.4%; and `O=C(Nc1nnc(S(=O)(=O)N2CCOCC2)s1)c1ccccc1F`, with inactive: -11.6%.
With `CC(C)Cc1nn2c(=O)cc(COC(=O)c3ccc(NC(=O)CCc4ccccc4)cc3)nc2s1`, the “activation” value was inactive: -8.56%.
Consider `O=c1c(N2CCc3ccccc3C2)csc2ccc(Cl)cc12`, for which the “activation” value is inactive: -12.3%.
Turning to `CCc1ccc2c(c1)NC(c1ccc(C)cc1)=NC(c1cccs1)=N2`, the “activation” value is inactive: -4.53%.
The figure for `CCOC(=O)N1CCc2c(sc3c2c(=O)n(Cc2ccccc2)c(=O)n3CC(=O)Nc2ccc(C)cc2C)C1` is inactive: -6.03%; for `CCn1c(=O)sc2cc(NS(=O)(=O)c3ccc(C)cc3)ccc21` it is inactive: -12.7%.
On to `CCOc1cccc(C(=O)N2CCC(c3nc4ccccc4s3)CC2)c1`, for which the “activation” value was inactive: -19.3%.
The figure for `COc1ccc(-c2noc(N(c3cccc(Cl)c3)c3nc(-c4ccc(OC)c(OC)c4)no3)n2)cc1OC` is inactive: -2.18%; for `CCN1CC(CCN2CCOCC2)C(c2ccccc2)(c2ccccc2)C1=O` (stereo not given) it is inactive: -19.3%; for `Cn1nc(-c2ccccc2F)c2cc(C(=O)NCCc3ccc(Cl)cc3)sc21` it is inactive: -9.46%.
The figure for `COCCCNC(=O)c1cnc2c(-c3ccc(F)cc3)c(C)nn2c1C` is inactive: 6.82%; for `CCOC(=O)C1CCN(C(c2cccc(F)c2)c2c(O)cc(C)n(Cc3ccco3)c2=O)CC1` (stereo not given) it is inactive: -21.1%.
The figure for `Brc1cccc(-c2nnc(CN3CCN(c4ccccn4)CC3)o2)c1` is inactive: -8.16%; for `Cc1ccc(S(=O)(=O)Cc2ccc(C(=O)NCCc3ccc(Cl)cc3)o2)cc1` it is inactive: -13.3%; for `CC(=O)c1ccc(NC(=O)CSc2ccc(-c3cccs3)nn2)cc1` it is inactive: -16.7%.
`CCOc1ccc(-c2nc(SCC(=O)c3ccccc3)n[nH]2)cc1`: the “activation” value was inactive: -8.66%.
The figure for `CN(C)c1ccc(CNC(=O)c2cnc3sc(N4CCOCC4)nn3c2=O)cc1` is inactive: -1.06%.
The figure for `O=C(NC1CCCCC1)c1ccc(CSc2nc3cccnc3n2Cc2ccc(F)cc2)cc1` is inactive: -1.22%; for `CCOC(=O)c1ccc(NC(=O)CCC(=O)N2Cc3ccccc3Oc3ncccc32)cc1` it is inactive: -11.8%; for `COc1ccc(OC)c(NC(=O)C2CCN(S(=O)(=O)c3ccc4c(c3)CCCC(=O)N4)CC2)c1` it is inactive: 10.7%.
For the molecule `O=C(c1cc(O)c(O)c(O)c1)c1ccc(O)c(O)c1O`, the “activation” value was inactive: -17%.
The figure for `CCOC(=O)c1c(S(=O)(=O)N2CCCC(C(=O)Nc3cc(C)ccn3)C2)c(C)n(C)c1C` (stereo not given) is inactive: -21.5%.
Then `COC(=O)C1=C(C)NC(=O)C1(NC(=O)c1cc(OC)c(OC)c(OC)c1)C(F)(F)F` (stereo not given), with inactive: 1.15%; and `Cc1cc(C)nc(NC(=NCCc2c[nH]c3ccc(Cl)cc23)NC(=O)c2ccccc2C)n1`, with inactive: -3.85%.
On to `Cc1cccc(-n2cc(-c3ccccc3)c3c(NC4CCCC4)ncnc32)c1`, for which the “activation” value was inactive: 2.52%.
Take `C=Cc1ccc(Cn2nc(-c3ccc(C)cc3)ccc2=O)cc1`: the “activation” value was inactive: -28.8%.
The figure for `CCOC(=O)c1c(NC(=O)c2ccc(S(=O)(=O)N3CCC(C)CC3)cc2)sc2c1CCN(CC)C2` is inactive: -14.8%.
`Cc1cccc(Nc2nnc(-c3ccc(C)c(S(=O)(=O)NCC4CCCO4)c3)c3ccccc23)c1` (stereo not given): the “activation” value is inactive: -14.9%.
Then `CCOC(=O)c1ccc(N2C(=O)c3n[nH]c(-c4ccco4)c3C2c2ccc(O)c(OCC)c2)cc1` (stereo not given), with inactive: -27.9%; and `COCCNc1ccc(-c2nc(-c3ccco3)no2)cc1[N+](=O)[O-]`, with inactive: -16.8%.
Consider `O=C(CN1C(=O)COc2ccc(S(=O)(=O)N3CCCC3)cc21)N1CCN(c2ccc(F)cc2)CC1`, for which the “activation” value was inactive: -7.07%.
Then `O=C1CC(c2nnc(Cc3ccc(F)cc3Cl)o2)CN1c1ccccc1` (stereo not given), with inactive: -2.26%; and `O=C1c2[nH]nc(-c3ccccc3O)c2C(c2ccccc2F)N1Cc1cccnc1` (stereo not given), with inactive: -32.2%.
Regarding `Cc1cccc(-n2c(Cc3ccccc3)nnc2SCc2nc(-c3cccs3)no2)c1`, the “activation” value was inactive: -13.1%.
The figure for `COC(=O)c1ccc(NC(=O)CN2C(=O)CCc3cc(S(=O)(=O)N4CCCCC4)ccc32)cc1` is inactive: -9.82%; for `N#Cc1ccccc1Cn1c(=O)n(-c2cccc(C(F)(F)F)c2)c(=O)c2sccc21` it is inactive: -4.53%.
The figure for `CCOC(=O)c1cc(-c2ccccc2)n(CCCC(=O)Nc2cccc(C)c2C)c1C` is inactive: -8.02%.
With `COc1ccc(S(=O)(=O)NCC(c2ccco2)N2CCN(c3ccccc3)CC2)cc1OC` (stereo not given), the “activation” value was inactive: 10.7%.
Then `O=C(O)CCn1c(=O)c2cccn2c2cccnc21`, with inactive: -9.57%.
Take `Cc1[nH]c(=O)[nH]c(=O)c1S(=O)(=O)N1CCN(c2ccccc2Cl)CC1`: the “activation” value is inactive: -2.95%.
Regarding `COc1ccccc1NC(=O)c1sc2nc(C)c(C(=O)Nc3ccc(C)cc3C)c(-c3cccs3)c2c1N`, the “activation” value was inactive: -14.4%.
The figure for `COc1cc2[nH]c(=O)n(CCCC(=O)NCc3ccc(Cl)cc3)c(=O)c2cc1OC` is inactive: -19.4%; for `Cc1ccc(NC(=O)C(=O)NCC(c2cccnc2)N2CCN(c3ccccc3F)CC2)cc1Cl` (stereo not given) it is inactive: -16%; for `CCc1ccccc1Nc1nn2c(=O)c3ccc(C(=O)NC(C)c4ccccc4)cc3nc2s1` (stereo not given) it is inactive: 1.5%.
Take `CC(=O)Nc1ccc(NC(=O)c2cc3sccc3n2Cc2ccc(F)cc2)cc1`: the “activation” value was inactive: -14.9%.
Consider `CC(C)(C)C1CCc2c(sc3nc(-c4cc5cc(Br)ccc5oc4=O)[nH]c(=O)c23)C1` (stereo not given), for which the “activation” value was inactive: -8.21%.
The figure for `CCOC(=O)c1c(C)[nH]c(CCC(=O)NCc2ccc(F)cc2)c1C` is inactive: -5.02%; for `CCOc1cc2[nH]c(=O)n(CCCCC(=O)N3CCN(c4cccc(Cl)c4)CC3)c(=O)c2cc1OCC` it is inactive: -3.88%; for `Cc1cccc2sc(N(Cc3cccnc3)C(=O)c3cccs3)nc12` it is inactive: -8.66%.
As for `CCc1ccc(CN2CCc3nc(Nc4ccccc4)ncc3C2)cc1`, the “activation” value is inactive: -6.04%.
On to `CCOc1ccccc1NC(=O)N1CCC(n2c(C)nc3cccnc32)CC1`, for which the “activation” value is inactive: -11.8%.
Then `COc1ccc(-n2nc3c(N4CCCC(C(=O)NCc5ccc(C)cc5)C4)nnc(C)c3c2C)cc1` (stereo not given), with inactive: -6.68%; and `Cc1sc2ncn(CC(=O)Nc3ccc(F)cc3F)c(=O)c2c1S(=O)(=O)N1CCC(C)CC1`, with inactive: -30.8%.
Then `COc1ccc(NC(=O)c2cc3nc(-c4ccc(Cl)c(Cl)c4)cc(C(F)(F)F)n3n2)c(OC)c1`, with inactive: -15.1%.
`COc1cccc(N2CCN(S(=O)(=O)c3cn(C)c(C)n3)CC2)c1`: the “activation” value was inactive: -19.6%.
Then `Cc1c(-c2nnc(SCC(=O)Nc3ccccc3F)o2)nnn1-c1ccc(F)cc1`, with inactive: -24.1%; and `COc1ccc(C(=O)NC2CC(=O)N(c3ccc4c(c3)OCCO4)C2)cc1` (stereo not given), with inactive: -10.9%.
With `COc1ccc(CNC(=O)CCc2cn(C)c3ccccc23)cc1`, the “activation” value was inactive: 3.55%.
For `CC(=O)N1CCc2cc(S(=O)(=O)NC(CC(C)C)C(=O)Nc3ccc(C(C)C)cc3)ccc21` (stereo not given), the “activation” value was inactive: -3.11%.
The figure for `CC(C)Cn1cc(NC(=O)Nc2cccc(C(F)(F)F)c2)c2ccccc2c1=O` is inactive: -24.9%.
For the molecule `CCn1c(C(=O)N2CCC(C(=O)N3CCN(c4cc(C)ccc4C)CC3)CC2)cc2sccc21`, the “activation” value is inactive: -13.5%.
The figure for `COc1ccc(CNC(=O)c2ccc3nc(CCc4ccccc4)oc3c2)cc1OC` is inactive: -12.3%.
Then `CCOc1ccc(CNC(=O)c2cccc(NC(=O)N3CCSc4ncccc43)c2)cc1`, with inactive: -16.4%; and `CC(C)CC(=O)Nc1nc2c(s1)CC(C(C)(C)C)CC2` (stereo not given), with inactive: -35.4%; and `CCOC(=O)c1c(C)sc(-c2c(-c3ccc4c(c3)OCCO4)[nH]c3c2c(=O)n(C)c(=O)n3C)c1O`, with inactive: -19.9%.
Then `Cc1cc(-c2ccc(C)c(S(=O)(=O)N3CCC(C)CC3)c2)on1`, with inactive: -6.45%; and `CC(=O)N1c2ccc(S(=O)(=O)N3CCCCCC3)cc2CC1C(=O)NC(C)C` (stereo not given), with inactive: -10.3%.
On to `CCOC(=O)N1CCc2c(sc3c2c(=O)n(Cc2ccccc2)c(=O)n3Cc2cc(C)ccc2C)C1`, for which the “activation” value was inactive: 5.73%.
